Screen size: about 120,000 compounds; about 5,300 (4.4%) were called active. Inconclusive results, whose numbers are uncertain, are shown with a selection of clear calls. Calls follow the shape of the dose curve; as a rule, active = well fitted inhibition curve with a large enough effect; inconclusive = small, poorly fitted or top-dose-only effect; inactive = no such curve, though single readings can be large or run the other way. A potency beside an inconclusive call is a rough fit, not a confirmed value.
Experiment: qHTS Primary assay for Inhibitors of Plasmodium falciparum Dd2 growth in vitro; also: nearly all actives have a fitted effect of over 65% in size;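 as to activity, negative = inhibition: plate controls were DMSO vehicle for no effect and reference drug for full effect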
Settings: P. falciparum Dd2 growth, SYBR Green, 72 h; activity, negative = inhibition: at 28.9 µM (top of the series) unless noted; series mostly up to 28.9 µM
In short: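 Readout: SYBR Green fluorescence, 485 nm excitation, 535 nm emission, after ~16 h lysis at 37C. Before that, Dd2-infected red cells (2.5% hematocrit) grew 72 h with compound, 29 uM top final concentration.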
Potency is read from the fitted curve at half-maximal effect; tags tell the direction and shape of the fitted curve.

Compound | Potency | activity, negative = inhibition | outcome
O=C(COc1ccc(-n2cnnn2)cc1)N1CCCC2(CCOC2)C1 (centres undefined) | inconclusive: 3.98 µM [inhibitor, full curve, poor fit] | – | –
Cc1noc(C)c1[S+](=O)([O-])N1CCn2c(nn(-c3ccc(F)cc3F)c2=O)C1 | – | inactive: 14.6% | –
COc1ccc(C(=O)N2CCC3(CC2)C(OC)CN3c2cccc(F)c2)cc1F (centres undefined) | inconclusive: 3.98 µM [inhibitor, single point] | – | –
CN1C(=O)CCC2(CNC(=O)c3ccco3)CCCC=C12 (centres undefined) | – | inactive: -10.3% | –
Cc1cn2nc(C(=O)Nc3cccc(F)c3)cc2c(N(C)Cc2ccccc2)n1 | inconclusive: 3.98 µM [inhibitor, single point] | – | –
CN1CCN([C@@H]2[C@H](O)[C@H](CO)O[C@@H]2CN(Cc2ccc(Cl)cc2)Cc2cccc(Cl)c2)CC1 | inconclusive: 1.78 µM [inhibitor, single point] | – | –
CN1CCN([C@@H]2[C@H](O)[C@H](CO)O[C@@H]2CNS(=O)(=O)c2cccs2)CC1 | – | inactive: 23.8% | –
Cc1ccc(C)c(N2CCN(C(=O)c3cc4c(=O)n(Cc5cccs5)ccc4nc3C)CC2)c1 | inconclusive: 15.8 µM [inhibitor, single point] | – | –
CC(C)(C)c1ccc(S(=O)(=O)Nc2ccc(O)c(Sc3nc4ccccc4s3)c2)cc1 | inconclusive: 11.2 µM [inhibitor, single point] | – | –
CCNC(=O)N[C@H]1CC[C@]2(C)CC[C@@H]([C@H](C)C(=O)NCc3ccc(F)cc3)[C@H](O)[C@H]2[C@@H]1C | – | – | inactive
CCC1=C(C(=O)OC)C(c2cccc(OC)c2OC)N2C(CC(=O)NC3CC3)=CSC2=N1 (centres undefined) | – | – | inactive
CC(=O)N1CCCc2cc(S(=O)(=O)N3CCCC(C(=O)Nc4ccc(C)c(C)c4)C3)ccc21 (centres undefined) | inconclusive: 0.0398 µM [inhibitor, full curve, poor fit] | – | –
O=C(NCCC1=CCCCC1)c1ccc(Cn2ccn3nc4c(c3c2=O)CCCC4)cc1 | inconclusive: 12.6 µM [inhibitor, single point] | – | –
Cn1cccc1C(=O)N1CC[C@H](NC(=O)Nc2ccc(F)cc2F)[C@H]1C(=O)N[C@H](Cc1ccccc1)C(N)=O | inconclusive: 0.282 µM [inhibitor, full curve] | – | –
Cc1ccc(C(=O)Nc2ccc3oc(-c4cccnc4)nc3c2)c(Cl)c1 | inconclusive: 17.8 µM [inhibitor, single point] | – | –
O=C1N(Cc2ccccc2F)CCOC12CCN(Cc1ccc(F)cc1F)CC2 | active: 2.51 µM | – | –
O=C(CCc1nc2ccccc2s1)N1CCCC1c1nc(CCOCC2CC2)no1 (centres undefined) | inconclusive: 7.94 µM [inhibitor, single point] | – | –
Cc1cccc(N2CCN(C(=O)C3CCN(S(=O)(=O)c4ccc5c(c4)oc(=O)n5C)CC3)CC2)c1C | inconclusive: 17.8 µM [inhibitor, single point] | – | –
CCCc1nc(C)n2ccn(Cc3cccc(C#N)c3)c(=O)c12 | inconclusive: 10 µM [inhibitor, single point] | – | –
O=c1cc(-c2cccnc2)oc2c(NCC3CCOCC3)nccc12 | inconclusive: 2.24 µM [inhibitor, full curve, poor fit] | – | –
Cc1onc(-c2cnn(C)c2NCc2ccc(C#N)cc2)c1C(=O)Nc1ccccc1 | inconclusive: 11.2 µM [inhibitor, partial curve, poor fit] | – | –
O=C1Nc2ccc(-c3ccccc3F)cc2C(=O)N2C[C@H](O)C[C@@H]12 | – | – | inactive [at 44.1 µM]

Compound | Potency | activity, negative = inhibition | outcome
Cc1cn2nc(C(=O)Nc3ccc(F)cc3F)cc2c(N(C)Cc2ccccc2)n1 | inconclusive: 6.31 µM [inhibitor, partial curve, poor fit] | – | –
O=C(O)CCc1cc2n(n1)CCCN(C(=O)c1cc3c([nH]c1=O)CCC3)C2 | – | inactive: 29.7% | –
Cc1ccc(-n2ncc(C(=O)N3CCC(c4ccccc4)C3)c2C2CCN(C(=O)OC(C)(C)C)CC2)cc1 (centres undefined) | active: 11.2 µM | – | –
COc1ccc(-c2noc([C@@H]3CCCN3C(=O)c3ccc(N(C)C)cc3)n2)cc1OC | – | – | inactive
Cc1ccc(C)c(NC(=O)c2nc(S(C)(=O)=O)ncc2N(Cc2ccc(C(C)(C)C)cc2)Cc2ccco2)c1 | active: 2.51 µM | – | –
CN1C(=O)Cc2cc(S(=O)(=O)N3CCN(c4cccc(C(F)(F)F)c4)CC3)ccc21 | inconclusive: 17.8 µM [inhibitor, single point] | – | –
Cc1noc(C)c1-c1nccc2c(=O)cc(N(C)c3ccccc3)oc12 | inconclusive: 0.794 µM [inhibitor, full curve] | – | –
c1ccc2sc([C@H]3CCN(CC4CCCCC4)C3)nc2c1 | active: 10 µM | – | –
COc1ccc(CNC(=O)CC[C@H]2CNC(=O)[C@@H]3[C@@H](CCN3C3CCCCC3)N2C)cc1 | – | – | inactive
Cc1cccc(CC(=O)N2CCC3(CC2)N(C)C(=O)CS3(=O)=O)c1 | inconclusive: 5.01 µM [inhibitor, partial curve, poor fit] | – | –
CCOc1ccc(C(=O)c2cn(CC(=O)Nc3ccc4c(c3)OCCO4)c3ccc(OC)cc3c2=O)cc1 | – | inactive: -21.9% | –
Cc1ccc(CNC(=O)C(=O)NCC(c2cccnc2)N2CCN(c3ccc(F)cc3)CC2)cc1 (centres undefined) | inconclusive: 10 µM [inhibitor, single point] | – | –
Cn1c(=O)c2c(nc(Oc3ccc(F)cc3)n2Cc2ccc(F)cc2)n(C)c1=O | inconclusive: 10 µM [inhibitor, single point] | – | –
OC1(CNCc2cccnc2-n2cncn2)CCNC1 (centres undefined) | – | inactive: -8.84% | –
COc1ccccc1NC(=O)c1sc2nc(C)c(C(=O)Nc3ccc(C)cc3C)c(-c3ccc(Br)cc3)c2c1N | inconclusive: 11.2 µM [inhibitor, partial curve, poor fit] | – | –
Cc1cc(-c2cc(C(=O)NCc3c(C)cc(C)[nH]c3=O)c3c(c2)ncn3C)ccn1 | – | inactive: -7.66% [at 44.1 µM] | –
CC1(CCCCN2CCOCC2)COc2ccc(C(=O)Nc3ccc4[nH]ccc4c3)cc2N1 (centres undefined) | inconclusive: 1.12 µM [inhibitor, full curve] | – | –
O=C(Nc1ccc(-c2nc3cc(NC(=O)c4ccccc4F)ccc3o2)cc1)c1ccccc1F | inconclusive: 0.158 µM [inhibitor, full curve, poor fit] | – | –
COc1ccc(C(=O)N[C@@H]2CCC[C@@H]2C(=O)NCCCn2cccn2)cn1 | – | inactive: 19.5% | –
COCCn1ncc(N2CCCC(CC(=O)O)C2)cc1=O (centres undefined) | – | inactive: 44% | –
CCN(C1CCOCC1)C1CN(C(=O)c2cccn2C)C1 | – | inactive: 0.356% | –
Cc1ccc(C)c(CN2C[C@@H]3C(=O)N(CCN4CCc5ccccc5C4)C(=O)[C@@H]3C2)c1 | inconclusive: 2.51 µM [inhibitor, partial curve, poor fit] | – | –

Compound | Potency | activity, negative = inhibition | outcome
O=c1n(Cc2ccc(F)c(F)c2)nc(C2CCNCC2)n1Cc1ccccc1 | inconclusive: 8.91 µM [inhibitor, partial curve] | – | –
CCCCCn1c(=O)[nH]c2cc(C(=O)N3CCN(c4cc(Cl)ccc4C)CC3)ccc2c1=O | inconclusive: 10 µM [inhibitor, single point] | – | –
CN1CC[C@H]2COC(=O)N2c2ccccc2C1 | inconclusive: 3.98 µM [inhibitor, single point] | – | –
Cc1c(CN2CCCC(C(=O)Nc3cccc(-c4cc5ccccc5[nH]4)c3)C2)cnn1C (centres undefined) | inconclusive: 2.24 µM [inhibitor, partial curve, poor fit] | – | –
CCOC(=O)N1CCC(NC(=O)c2ccc3c(c2)N(Cc2cc(C)ccc2C)C(=O)c2ccccc2S3(=O)=O)CC1 | active: 11.2 µM | – | –
CS(=O)(=O)N(Cc1cccnc1)C1CN(C(=O)NCc2ccccc2)C1 | – | inactive: -4% | –
CN1[C@@H](CCC(=O)NCc2ccco2)CNC(=O)[C@@H]2[C@H]1CCN2Cc1cccc(Cl)c1 | – | – | inactive
Cc1cc(C(F)(F)F)nn1CC(=O)NCC(=O)N1CCCCCNC(=O)CC1c1ccccc1 (centres undefined) | inconclusive: 5.01 µM [inhibitor, partial curve] | – | –
CN1CCN(c2ccc3ncc(Nc4ccccc4-c4ccccc4)n3n2)CC1 | inconclusive: 0.1 µM [inhibitor, full curve, poor fit] | – | –
O=C(Nc1ccccc1)N1CCc2c(c3ccccc3n2CC2CC2)C1 | – | inactive: -18% | –
CC1CCCN(c2nc3c(S(=O)(=O)c4ccc(C(C)C)cc4)nnn3c3ccsc23)C1 (centres undefined) | inconclusive: 17.8 µM [inhibitor, single point] | – | –
O=C(NCc1ccc(F)cc1)c1nc(-c2ccc(Cl)cc2Cl)c2cnccn12 | inconclusive: 3.55 µM [inhibitor, partial curve, poor fit] | – | –
Cc1ccc(-c2nc3c(C)cccn3c2Nc2ccccc2C)s1 | inconclusive: 10 µM [inhibitor, single point] | – | –
CN(C)c1cccc(-c2nc(C3CC(=O)N(c4ccc(F)cc4)C3)no2)c1 (centres undefined) | – | inactive: 35.3% | –
CN(Cc1ccccc1)Cc1cn(C[C@H]2C[C@@H]3CCN2C[C@@H]3C(=O)Nc2ccccc2)nn1 | – | – | inactive
O=C(NCC(c1ccc2c(c1)OCO2)N1CCN(c2ccccc2)CC1)C(=O)Nc1cccc(F)c1 (centres undefined) | inconclusive: 17.8 µM [inhibitor, single point] | – | –
Cc1nc(-c2cccc(Cl)c2)n(Cc2ccc(C#N)cc2)c(=O)c1CCO | inconclusive: 10 µM [inhibitor, single point] | – | –
CN1CCCCCC(O)c2cc(C(=O)NCc3cc(F)cc(F)c3)ccc21 (centres undefined) | inconclusive: 10 µM [inhibitor, partial curve, poor fit] | – | –
CCN(CC)C(=O)CSc1nc2cc3c(cc2c(=O)n1CCCCCC(=O)NCc1ccc(OC)cc1)OCO3 | inconclusive: 10 µM [inhibitor, single point] | – | –
COCc1cc(=O)n(CC(=O)NCc2cccc(OC)c2)c(N2CCOCC2)n1 | inconclusive: 1.41 µM [inhibitor, partial curve] | – | –
